# Assay results published in PubChem BioAssay (Tox21).
# Where “and” joins values, the source holds several entries; their conditions need not be identical. Equal entries are not always repeated. The inconclusive results got no clear call from the source; some entries with a clear call stand among them for comparison. For part of these data: Potencies of inconclusive entries are doubtful fits and often do not repeat. Calls of active or inactive are those of the source. Unless noted, calls come from the whole dose curve.
# How the values were obtained:
# [1] = biological target: Peroxisome proliferator-activated receptor gamma (Homo sapiens) (UniProt P37231); assay: qHTS assay to identify small molecule antagonists of the peroxisome proliferator-activated receptor gamma (PPARg) signaling pathway (AID 743191); settings: HEK293H PPARg-UAS-bla, beta-lactamase ratio, antagonist, 17 h; ratio activity, negative = inhibition: at 62.6 µM (top of the series) unless noted; note: % is set by controls: 0 for no effect and ±100 for the full control effect; nearly all actives have a fitted effect of over 30% in size
# Chain of UniProt P37231 (P37231 whole entry, looked up): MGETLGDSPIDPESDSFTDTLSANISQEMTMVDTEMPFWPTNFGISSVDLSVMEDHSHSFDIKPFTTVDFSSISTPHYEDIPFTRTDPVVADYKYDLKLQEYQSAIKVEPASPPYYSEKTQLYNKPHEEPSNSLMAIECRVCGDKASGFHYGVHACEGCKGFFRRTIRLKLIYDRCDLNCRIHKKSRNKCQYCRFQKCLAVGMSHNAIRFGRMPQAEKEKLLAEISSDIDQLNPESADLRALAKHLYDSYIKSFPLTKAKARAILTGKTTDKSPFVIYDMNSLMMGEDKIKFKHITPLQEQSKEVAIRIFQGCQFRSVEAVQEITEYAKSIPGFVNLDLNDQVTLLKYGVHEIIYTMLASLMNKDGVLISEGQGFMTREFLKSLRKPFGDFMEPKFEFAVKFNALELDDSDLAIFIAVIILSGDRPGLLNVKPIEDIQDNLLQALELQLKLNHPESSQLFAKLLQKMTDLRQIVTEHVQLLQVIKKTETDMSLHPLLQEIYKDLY
# In short: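 GeneBLAzer PPARg UAS-bla HEK293H cells carrying a UAS-driven beta-lactamase reporter were plated at 3000 cells/well, preincubated 5 h at 37C, then given compound for 17 h at 37C; LiveBLAzer B/G FRET substrate was read after 1 h at room temperature.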
# [2] = qHTS assay for small molecule activators of the heat shock response signaling pathway - cell viability counter screen (AID 743209; active = well fitted curve in the direction sought with a large enough effect in the repeat runs; inconclusive = weak or mixed curves; inactive = no such curve, though single readings can be large; an effect the other way counts as inactive or inconclusive; note: nearly all actives have a fitted effect of over 50% in size; note: potency is the fitted concentration of half-maximal effect; for activity change, negative = cytotoxicity: % is set by controls: 0 for no effect and ±100 for the full control effect); settings: HSE-bla HeLa viability, CellTiter-Glo luminescence, 5 h; activity change, negative = cytotoxicity: at 62.6 µM (top of the series) unless noted
# In short: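 To flag cytotoxic compounds, HSE-bla HeLa cells plated at 1500 cells/well were dosed for 5 h at 37 C, followed by the reporter FRET read and then CellTiter-Glo, with luminescence recorded 30 min after reagent addition.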
# [3] = qHTS assay to identify small molecule agonists of the peroxisome proliferator-activated receptor delta (PPARd) signaling pathway - cell viability counter screen (AID 743211; active = well fitted curve in the direction sought with a large enough effect in the repeat runs; inconclusive = weak or mixed curves; inactive = no such curve, though single readings can be large; an effect the other way counts as inactive or inconclusive; note: potency is the fitted concentration of half-maximal effect; nearly all actives have a fitted effect of over 55% in size); settings: PPARd-bla HEK293H viability, CellTiter-Glo luminescence, 17 h; activity change, negative = cytotoxicity: at 62.6 µM (top of the series) unless noted
# In short: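 Following 5 h plating at 37 C and 5% CO2, PPARd UAS-bla HEK293H cells took up test compounds for 17 h. Viability was quantified by luminescence 30 min after CellTiter-Glo addition at room temperature.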
# [4] = biological target: Peroxisome proliferator-activated receptor delta (Homo sapiens) (UniProt Q03181); assay: qHTS assay to identify small molecule antagonists of the peroxisome proliferator-activated receptor delta (PPARd) signaling pathway (AID 743215; active = well fitted inhibition curve with a large enough effect in the signal ratio in the repeat runs, not every such curve was filed as active; inconclusive = weak or mixed curves, or effect the other way; inactive = no such curve, though single readings can be large or run the other way; the % refers to the signal ratio;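 note: cells stimulated with agonist L165041 at 300 nM final during compound exposure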; note: potency is the fitted concentration of half-maximal effect; for ratio activity, negative = inhibition: % is set by controls: 0 for no effect and ±100 for the full control effect); settings: HEK293H PPARd-UAS-bla, beta-lactamase FRET ratio, antagonist, 17 h; ratio activity, negative = inhibition: at 62 µM (top of the series) unless noted
# Chain of UniProt Q03181 (Q03181 whole entry, looked up): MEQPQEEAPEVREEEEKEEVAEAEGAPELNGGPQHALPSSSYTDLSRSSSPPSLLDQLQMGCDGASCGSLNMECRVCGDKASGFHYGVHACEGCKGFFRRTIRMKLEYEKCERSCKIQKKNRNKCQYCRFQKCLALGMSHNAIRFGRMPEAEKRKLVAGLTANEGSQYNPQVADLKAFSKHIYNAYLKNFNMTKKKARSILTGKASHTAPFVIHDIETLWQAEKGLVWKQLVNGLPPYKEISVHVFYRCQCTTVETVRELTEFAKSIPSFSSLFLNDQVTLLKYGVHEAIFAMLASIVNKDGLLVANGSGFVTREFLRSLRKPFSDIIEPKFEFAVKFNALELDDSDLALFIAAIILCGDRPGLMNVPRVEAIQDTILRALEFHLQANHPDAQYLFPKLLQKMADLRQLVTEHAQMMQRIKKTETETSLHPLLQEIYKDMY
# In short: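 Screen format: qHTS, antagonist mode. HEK293H PPARd-bla cells received compound and 300 nM L165041 (final), 17 h, 37 C. Beta-lactamase detected via FRET substrate fluorescence, 2 h, room temperature.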
# [5] = biological target: Bile acid receptor (Homo sapiens) (UniProt Q96RI1); assay: qHTS assay to identify small molecule antagonists of the farnesoid-X-receptor (FXR) signaling pathway (AID 743217; active = well fitted inhibition curve with a large enough effect in the signal ratio in the repeat runs, not every such curve was filed as active; inconclusive = weak or mixed curves, or effect the other way; inactive = no such curve, though single readings can be large or run the other way; the % refers to the signal ratio; note: potency is the fitted concentration of half-maximal effect); settings: HEK293T FXR-UAS-bla, beta-lactamase ratio, CDCA-stimulated, 16 h; activity change, negative = inhibition: at 62.6 µM (top of the series) unless noted
# Chain of UniProt Q96RI1 (Q96RI1 whole entry, looked up): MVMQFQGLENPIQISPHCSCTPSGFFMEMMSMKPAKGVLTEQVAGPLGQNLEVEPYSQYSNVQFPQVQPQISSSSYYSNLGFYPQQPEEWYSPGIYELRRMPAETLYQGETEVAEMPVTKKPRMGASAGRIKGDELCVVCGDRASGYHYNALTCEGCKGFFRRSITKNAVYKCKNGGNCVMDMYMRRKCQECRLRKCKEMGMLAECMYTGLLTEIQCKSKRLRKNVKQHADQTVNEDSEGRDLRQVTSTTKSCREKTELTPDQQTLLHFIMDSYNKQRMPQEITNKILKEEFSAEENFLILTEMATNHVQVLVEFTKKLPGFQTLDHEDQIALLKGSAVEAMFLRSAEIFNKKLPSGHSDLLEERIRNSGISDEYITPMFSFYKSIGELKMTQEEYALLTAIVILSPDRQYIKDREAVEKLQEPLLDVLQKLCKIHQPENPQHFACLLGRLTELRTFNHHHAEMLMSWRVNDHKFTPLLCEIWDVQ
# In short: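 Quantitative HTS, beta-lactamase reporter format: FXR-UAS-bla HEK 293T cells co-treated 16 h at 37 °C with compounds and 50 uM final chenodeoxycholic acid, then read by B/G FRET fluorescence.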
# [6] = qHTS assay to identify small molecule agonists of the vitamin D receptor (VDR) signaling pathway - cell viability counter screen (AID 743224; active = well fitted curve in the direction sought with a large enough effect in the repeat runs; inconclusive = weak or mixed curves; inactive = no such curve, though single readings can be large; an effect the other way counts as inactive or inconclusive; note: potency is the fitted concentration of half-maximal effect; nearly all actives have a fitted effect of over 50% in size)
# In short: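 Counter screen for cytotoxicity: VDR-bla cells at 2,000 cells/well, 16 h compound exposure, then CellTiter-Glo luminescence after the beta-lactamase measurement.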
# [7] = qHTS assay to identify small molecule agonists of the NFkB signaling pathway - cell viability counter screen (AID 1159515); note: nearly all actives have a fitted effect of over 55% in size; note: potency is the fitted concentration of half-maximal effect
# In short: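 Counter screen run alongside the NFkB-bla agonist assay: ME-180 reporter cells exposed to compounds for 5 hr, then lysed with CellTiter-Glo in the same wells. Luminescence, read after 30 min, reflects viable cells.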
# [8] = qHTS assay for small molecule agonists of the antioxidant response element (ARE) signaling pathway (AID 743202; active = well fitted activation curve with a large enough effect in the signal ratio in the repeat runs, not every such curve was filed as active; inconclusive = weak or mixed curves, or effect the other way; inactive = no such curve, though single readings can be large or run the other way; the % refers to the signal ratio; note: potency is the fitted concentration of half-maximal effect); settings: HepG2 ARE-bla reporter, beta-lactamase FRET, 16 h; activation: at 73.3 µM (top of the series) unless noted
# In short: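 Following a 16 h, 37 C exposure of reporter HepG2 cells (ARE-driven beta-lactamase, 2,000 cells/well) to compounds, FRET substrate was applied for 2 h at room temperature and fluorescence intensity recorded.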
# [9] = qHTS assay to identify small molecule agonists of the farnesoid-X-receptor (FXR) signaling pathway - cell viability counter screen (AID 743218; active = well fitted curve in the direction sought with a large enough effect in the repeat runs; inconclusive = weak or mixed curves; inactive = no such curve, though single readings can be large; an effect the other way counts as inactive or inconclusive; note: nearly all actives have a fitted effect of over 45% in size; note: potency is the fitted concentration of half-maximal effect); settings: FXR-bla HEK293T viability, CellTiter-Glo luminescence, 16 h; viability change, negative = cytotoxic: at 62.6 µM (top of the series) unless noted
# In short: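 Same-well cytotoxicity check on FXR-UAS-bla HEK 293T cells: 5 h attachment, 16 h compound at 37 C, CellTiter-Glo luminescence read at room temperature after 30 min.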
# [10] = qHTS assay to identify small molecule antagonists of the farnesoid-X-receptor (FXR) signaling pathway - cell viability counter screen (AID 743221; active = well fitted cell-killing curve with a large enough effect in the repeat runs, not every such curve was filed as active; inconclusive = weak or mixed curves, or effect the other way; inactive = no such curve, though single readings can be large or run the other way; note: potency is the fitted concentration of half-maximal effect; nearly all actives have a fitted effect of over 50% in size); settings: FXR-bla HEK293T viability, CellTiter-Glo luminescence, 16 h; activity change, negative = cytotoxicity: at 62.6 µM (top of the series) unless noted
# In short: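 Compound effects on cell number were measured as CellTiter-Glo luminescence in HEK 293T cells expressing FXR-UAS-bla, after 16 h at 37 C with 50 uM CDCA (final).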
# [11] = qHTS assay for small molecule activators of the heat shock response signaling pathway (AID 743210; active = well fitted activation curve with a large enough effect in the signal ratio in the repeat runs, with a control signal flat, not every such curve was filed as active; inconclusive = weak or mixed curves; the % refers to the signal ratio; note: potency is the fitted concentration of half-maximal effect); settings: HeLa HSE-bla reporter, beta-lactamase ratio, 5 h; activation: at 62.6 µM (top of the series)
# In short: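 Heat shock element–beta-lactamase HeLa reporter cells; qHTS with compounds for 5 h at 37 C; detection by FRET substrate fluorescence after 2.5 h at RT.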
# [12] = biological target: Peroxisome proliferator-activated receptor delta (Homo sapiens) (UniProt Q03181); assay: qHTS assay to identify small molecule agonists of the peroxisome proliferator-activated receptor delta (PPARd) signaling pathway (AID 743212); settings: HEK293H PPARd-UAS-bla, beta-lactamase FRET ratio, 17 h; activation: at 62.6 µM (top of the series) unless noted; note: % is set by controls: 0 for no effect and ±100 for the full control effect
# In short: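 Beta-lactamase reporter read by fluorescence (LiveBLAzer B/G FRET, 2 h, room temperature). Test agents, in DMSO, incubated at 37 C with PPARd-bla HEK293H cells.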
# [13] = qHTS assay to identify small molecule antagonists of the peroxisome proliferator-activated receptor delta (PPARd) signaling pathway - cell viability counter screen (AID 743213; active = well fitted curve in the direction sought with a large enough effect in the repeat runs; inconclusive = weak or mixed curves; inactive = no such curve, though single readings can be large; an effect the other way counts as inactive or inconclusive; note: nearly all actives have a fitted effect of over 50% in size; note: potency is the fitted concentration of half-maximal effect); settings: PPARd-bla HEK293H viability, CellTiter-Glo luminescence, 17 h; viability change, negative = cytotoxic: at 62 µM (top of the series) unless noted
# In short: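 PPARd-bla HEK293H cells (3000/well) got compound plus 300 nM L165041 agonist for 17 h at 37 C. Viability in the same wells came from CellTiter-Glo luminescence after 30 min at room temperature.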
# [14] = biological target: Bile acid receptor (Homo sapiens) (UniProt Q96RI1); assay: qHTS assay to identify small molecule agonists of the farnesoid-X-receptor (FXR) signaling pathway (AID 743220; active = well fitted activation curve with a large enough effect in the signal ratio in the repeat runs, not every such curve was filed as active; inconclusive = weak or mixed curves, or effect the other way; the % refers to the signal ratio; note: % is set by controls: 0 for no effect and ±100 for the full control effect); settings: HEK293T FXR-UAS-bla, beta-lactamase FRET ratio, 16 h; activation: at 62.6 µM (top of the series) unless noted
# In short: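 FXR-UAS-bla HEK 293T cells carrying a UAS-driven beta-lactamase reporter were plated for 5 h at 37C/5% CO2, then exposed to DMSO-dissolved Tox21 10K compounds for 16 h at 37C. A LiveBLAzer B/G FRET substrate was loaded for 2 h at room temperature before fluorescence reading.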
# [15] = biological target: Vitamin D3 receptor (Homo sapiens) (UniProt P11473); assay: qHTS assay to identify small molecule antagonists of the vitamin D receptor (VDR) signaling pathway (AID 743223; active = well fitted inhibition curve with a large enough effect in the signal ratio in the repeat runs, not every such curve was filed as active; inconclusive = weak or mixed curves, or effect the other way; inactive = no such curve, though single readings can be large or run the other way; the % refers to the signal ratio; note: potency is the fitted concentration of half-maximal effect); settings: VDR-UAS-bla HEK293T, beta-lactamase FRET ratio, 16 h; activity change, negative = inhibition: at 61 µM (top of the series) unless noted
# Chain of UniProt P11473 (P11473 whole entry, looked up): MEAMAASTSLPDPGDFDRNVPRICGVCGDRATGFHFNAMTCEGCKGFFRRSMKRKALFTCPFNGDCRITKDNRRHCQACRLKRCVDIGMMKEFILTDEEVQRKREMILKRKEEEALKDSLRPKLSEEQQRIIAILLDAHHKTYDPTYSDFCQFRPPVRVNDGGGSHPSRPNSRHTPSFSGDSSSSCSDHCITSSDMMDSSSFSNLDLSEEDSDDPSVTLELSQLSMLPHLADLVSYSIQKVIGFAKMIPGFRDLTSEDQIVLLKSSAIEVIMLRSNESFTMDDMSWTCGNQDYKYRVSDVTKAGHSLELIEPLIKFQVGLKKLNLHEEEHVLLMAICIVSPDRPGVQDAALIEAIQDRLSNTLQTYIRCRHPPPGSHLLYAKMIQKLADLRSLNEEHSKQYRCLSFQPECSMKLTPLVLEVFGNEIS
# In short: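 Beta-lactamase activity in VDR-bla cells is measured by FRET substrate fluorescence (2 h, room temperature) after cells spend 16 h at 37C with test compound and 3 nM final 1alpha,25-dihydroxyvitamin D3.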
# [16] = biological target: Vitamin D3 receptor (Homo sapiens) (UniProt P11473); assay: qHTS assay to identify small molecule agonists of the vitamin D receptor (VDR) signaling pathway (AID 743222); settings: HEK293T VDR-UAS-bla, beta-lactamase FRET ratio, 16 h; activation: at 63.5 µM (top of the series) unless noted; note: potency is the fitted concentration of half-maximal effect
# In short: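 Using LiveBLAzer B/G FRET detection, agonism was scored in VDR-bla cells exposed overnight (16 h, 37C) to DMSO-dissolved compounds; substrate incubation was 2 h at room temperature.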
# [17] = qHTS assay to identify small molecule antagonists of the vitamin D receptor (VDR) signaling pathway - cell viability counter screen (AID 743225; active = well fitted curve in the direction sought with a large enough effect in the repeat runs; inconclusive = weak or mixed curves; inactive = no such curve, though single readings can be large; an effect the other way counts as inactive or inconclusive); settings: VDR-bla HEK293T viability, CellTiter-Glo luminescence, 16 h; viability change, negative = cytotoxic: at 61 µM (top of the series) unless noted
# In short: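 In this counter screen, VDR-bla HEK 293T cells receive test compound plus 3 nM final calcitriol for 16 h at 37C. Room-temperature steps of 2 h with the beta-lactamase substrate, then 30 min with CellTiter-Glo, precede the luminescence read.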
# Tags give direction and shape of the fitted curve or compound fluorescence and quenching.
smiles,measurement,setting,value
CCCCC(CC)COP(=O)(Oc1ccccc1)Oc1ccccc1 (stereo not drawn),Potency,[1],inactive
same,Potency,[2],inactive
same,Potency,[3],"inconclusive: 2.45 µM [cytotoxic, full curve, poor fit]"
same,"ratio activity, negative = inhibition",[4],inconclusive: -36.1%
same,"activity change, negative = inhibition",[5],inconclusive: -20.1%
same,Potency,[6],"inconclusive: 27.5 µM [cytotoxic, partial curve]"
same,Potency,[7],"inconclusive: 27.5 µM [cytotoxic, partial curve]"
O=Cc1ccc(Cl)cc1Cl,"ratio activity, negative = inhibition",[1],inconclusive: 7.51% [at 81.1 µM]
same,Potency,[8],inactive
same,Potency,[9],inactive
same,Potency,[10],"inconclusive: 55.3 µM [rising, single point]"
same,Potency,[7],"inconclusive: 0.0028 µM [rising, full curve, poor fit]"
Cc1cc(C(F)(C(F)(F)F)C(F)(F)F)ccc1NC(=O)c1cccc(I)c1C(=O)NC(C)(C)CS(C)(=O)=O,Potency,[1],inactive
same,Potency,[8],"inconclusive: 38.8 µM [rising, partial curve]"
same,Potency,[11],inconclusive: 40.7 µM
same,activation,[12],inconclusive: 12.5%
same,Potency,[13],"inconclusive: 3.49 µM [cytotoxic, partial curve, poor fit]"
same,activation,[14],inconclusive: 9.8%
same,Potency,[7],"inconclusive: 11 µM [cytotoxic, partial curve, poor fit]"
C=C(C#N)CCC#N,Potency,[1],inactive
same,Potency,[8],inconclusive: 30.6 µM
same,Potency,[13],"inconclusive: 5.49 µM [cytotoxic, single point]"
same,"activity change, negative = inhibition",[15],inconclusive: 15.2%
same,Potency,[7],"inconclusive: 54.9 µM [rising, partial curve, poor fit]"
C1CCC2CCCCC2C1 (stereo not drawn),"ratio activity, negative = inhibition",[1],inconclusive: -1.16% [at 81.1 µM]
same,activation,[8],inconclusive: 17.6% [at 94.8 µM]
same,Potency,[5],inactive
same,Potency,[9],inactive
same,Potency,[14],inactive
same,Potency,[7],"inconclusive: 57 µM [rising, single point]"
CSc1ccc(C(=O)C(C)(C)N2CCOCC2)cc1,Potency,[1],inactive
same,Potency,[4],inactive
same,Potency,[7],inactive
C=CC(=O)OC(C)(C)C,Potency,[1],inactive
same,"activity change, negative = inhibition",[15],inconclusive: -4.38%
same,Potency,[7],"inconclusive: 53 µM [rising, partial curve, poor fit]"
C=CC(=O)OCC,"ratio activity, negative = inhibition",[1],inconclusive: -4.03% [at 81.1 µM]
same,"viability change, negative = cytotoxic",[13],inconclusive: -32.3% [cytotoxic] [at 80.4 µM]
same,Potency,[4],inactive
same,Potency,[9],inactive
same,Potency,[7],inactive
NCc1cccnc1,"ratio activity, negative = inhibition",[1],inconclusive: 4.64%
same,Potency,[11],inactive
same,Potency,[4],"inactive and inconclusive: 119 nM [fluorescent, full curve]"
same,Potency,[16],"inactive and inconclusive: 33.5 µM [fluorescent, partial curve, poor fit]"
same,Potency,[7],"inactive and inconclusive: 26.8 µM [cytotoxic, partial curve, poor fit]"
CC[C@H]1C[C@H]2[C@@H]3CCC4=CC(=O)CC[C@@H]4[C@H]3CC[C@]2(C)[C@H]1O,"ratio activity, negative = inhibition",[1],inconclusive: 2.2%
same,Potency,[8],active: 29.8 µM
same,Potency,[12],inactive
same,"ratio activity, negative = inhibition",[4],inconclusive: 8.21%
same,Potency,[16],"inconclusive: 33.5 µM [rising, single point]"
same,Potency,[7],inactive
COc1cccc(C(=O)NN(C(=O)c2cc(C)cc(C)c2)C(C)(C)C)c1C,Potency,[1],inactive
same,activation,[8],inconclusive: -29.7%
same,Potency,[13],inconclusive: 4.36 µM [cytotoxic]
same,Potency,[5],"inconclusive: 54.9 µM [inhibitor, single point]"
same,Potency,[9],"inconclusive: 19.5 µM [rising, partial curve, poor fit]"
same,activation,[14],inconclusive: 0.741%
same,Potency,[17],"inconclusive: 1.23 µM [cytotoxic, single point]"
same,Potency,[7],inactive
CCC(=O)OC1(c2ccccc2)CCN(C)CC1,Potency,[1],inactive
same,Potency,[8],inactive
same,Potency,[4],inactive
same,Potency,[7],inactive
Nc1cccnc1,"ratio activity, negative = inhibition",[1],inconclusive: -30.5% [at 81.1 µM]
same,Potency,[14],inactive
same,Potency,[15],"inconclusive: 21.9 µM [activator, single point]"
same,"activity change, negative = inhibition",[15],inconclusive: -8.58% [at 78.8 µM]
same,Potency,[7],"inconclusive: 0.353 µM [cytotoxic, full curve, poor fit]"
O=C(CBr)c1ccc(O)cc1,"ratio activity, negative = inhibition",[1],inconclusive: 11.7%
same,Potency,[8],"inconclusive: 19.3 µM [rising, full curve]"
same,Potency,[2],"inconclusive: 61.6 µM [cytotoxic, single point]"
same,Potency,[11],"inconclusive: 54.9 µM [rising, single point]"
same,Potency,[13],inactive
same,activation,[14],inconclusive: 4.8%
same,"activity change, negative = inhibition",[15],inconclusive: 11.6% [fluorescent]
same,Potency,[6],"inconclusive: 49 µM [cytotoxic, single point]"
same,Potency,[7],"inconclusive: 24.5 µM [rising, partial curve, poor fit]"
